The results in this text go back to article PMC6733871.

Substitutions are numbered along the chain they refer to. Numbers in names are those of the source. These are yes or no findings as the source states them, for the method shown. In cells and extracts the contact can be indirect. Some results given as binding are weak or reduced against the parent protein; the word gives no strength. Tags and fused reporters may be left off the sequences shown.

The chains are these.
T1: TRX1 C35S-SBP-6xHis (Thioredoxin1 trapping mutant) (UniProt P10599)
T1 sequence: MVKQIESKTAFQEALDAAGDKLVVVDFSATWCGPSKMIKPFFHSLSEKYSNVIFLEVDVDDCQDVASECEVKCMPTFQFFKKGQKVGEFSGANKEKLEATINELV

B1: PRX1, endogenous in PC3 cells (enzyme, UniProt Q06830 1-199)
chain: MSSGNAKIGHPAPNFKATAVMPDGQFKDISLSDYKGKYVVFFFYPLDFTFVCPTEIIAFSDRAEEFKKLNCQVIGASVDSHFCHLAWVNTPKKQGGLGPMNIPLVSDPKRTIAQDYGVLKADEGISFRGLFIIDDKGILRQITVNDLPVGRSVDETLRLVQAFQFTDKHGEVCPAGWKPGSDTIKPDVQKSKEYFSKQK
B2: PRX1, endogenous in MV3 cells (enzyme, UniProt Q06830 1-199)
chain: B1 chain
B3: Wildtype (wt) LPL transiently expressed in HEK293 cells (protein, UniProt P13796 1-627)
chain: MARGSVSDEEMMELREAFAKVDTDGNGYISFNELNDLFKAACLPLPGYRVREITENLMATGDLDQDGRISFDEFIKIFHGLKSTDVAKTFRKAINKKEGICAIGGTSEQSSVGTQHSYSEEEKYAFVNWINKALENDPDCRHVIPMNPNTNDLFNAVGDGIVLCKMINLSVPDTIDERTINKKKLTPFTIQENLNLALNSASAIGCHVVNIGAEDLKEGKPYLVLGLLWQVIKIGLFADIELSRNEALIALLREGESLEDLMKLSPEELLLRWANYHLENAGCNKIGNFSTDIKDSKAYYHLLEQVAPKGDEEGVPAVVIDMSGLREKDDIQRAECMLQQAERLGCRQFVTATDVVRGNPKLNLAFIANLFNRYPALHKPENQDIDWGALEGETREERTFRNWMNSLGVNPRVNHLYSDLSDALVIFQLYEKIKVPVDWNRVNKPPYPKLGGNMKKLENCNYAVELGKNQAKFSLVGIGGQDLNEGNRTLTLALIWQLMRRYTLNILEEIGGGQKVNDDIIVNWVNETLREAKKSSSISSFKDPKISTSLPVLDLIDAIQPGSINYDLLKTENLNDDEKLNNAKYAISMARKIGARVYALPEDLVEVNPKMVMTVFACLMGKGMKRV
modifications: oxidised after H2O2 treatment of the cells
B4: C42A LPL transiently expressed in HEK293 cells (protein, UniProt P13796 1-627)
chain: B3 chain with C42A
B5: C101A LPL transiently expressed in HEK293 cells (protein, UniProt P13796 1-627)
chain: B3 chain with C101A
B6: wt LPL-FLAG stably expressed in MV3 melanoma cells (protein, UniProt P13796 1-627)
chain: B3 chain
modifications: oxidised (TRX1 knockdown, H2O2 or gamma-irradiation of the cells)

The assay has as its target T1, TRX1 C35S-SBP-6xHis (Thioredoxin1 trapping mutant). Description: pull-down; TRX1 kinetic trapping: TRX1-SBP-6xHis on streptavidin sepharose beads incubated 1.5 h at 4 °C with lysates (1% Triton X-100) of cells whose thiols were blocked with NEM; washes with 500 mM NaCl and 1 M urea; eluted with 5 mM biotin; immunoblot under reducing and nonreducing conditions; mixed disulfide (covalent) intermediates; cells treated beforehand with H2O2 (1-100 uM), auranofin, gamma-irradiation (30 or 60 Gy) or TRX1 knockdown; only the target purified.
In the case of B1, the binding entry is on record as “binds”.

With B2, the binding entry is given as “binds”.

Consider B3, for which the binding result is “binds”. Consider B4, for which the binding result was “binds”.

Take B5: the binding result is “no binding”. Turning to B6, the binding entry is reported as “binds”.
